According to the supplement of paper PMC7826260:
This is one part of the list. The data describe in vitro nicking of single-stranded DNA by Rep domains (3 µM enzyme, 1 h, 37 °C); shown is the middle of each 90-letter strand. Uncut reads are compared with the no-enzyme pool on a log2 scale; more negative means more cut, near 0 not cut, and no call is made. Shares of all reads are compared; values above 0 arise when much of the pool is cut.

Columns and labels:
Test in all cases: uncleaved DNA left, log2 of reads against the no-enzyme library (log2 ratio); higher = less cleavage (more negative = more Rep cleavage of the k-mer); sequences stand for … in CTCGTCCG…ACCGGAGA
[1] = system: T1, Rep nickase domain of Muscovy duck circovirus
T1 sequence (Rep 1-111, printed without the tag): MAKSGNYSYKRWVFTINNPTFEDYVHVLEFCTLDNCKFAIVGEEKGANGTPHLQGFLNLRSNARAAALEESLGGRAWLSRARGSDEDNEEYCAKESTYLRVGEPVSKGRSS
Experimental: (§1)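 A pool of 90-nt single-stranded DNAs with seven random bases just before the constant AC of the nick site (name = the seven bases) was cut by 3 µM recombinant His6-SUMO-tagged Rep nickase domain (300 nM DNA, 50 mM HEPES pH 8.0, 50 mM NaCl, 1 mM MnCl2, 1 h, 37 °C, three replicates). Uncut DNA was amplified and sequenced.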

[2] = system: T2, Rep nickase domain of banana bunchy top virus
T2 sequence (Rep 1-94, printed without the tag): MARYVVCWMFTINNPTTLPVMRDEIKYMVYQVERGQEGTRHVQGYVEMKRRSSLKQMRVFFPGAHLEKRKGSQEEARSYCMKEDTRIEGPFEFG
Experimental: as §1

[3] = system: T3, Rep nickase domain of cabbage leaf curl virus
T3 sequence (Rep 1-116, printed without the tag): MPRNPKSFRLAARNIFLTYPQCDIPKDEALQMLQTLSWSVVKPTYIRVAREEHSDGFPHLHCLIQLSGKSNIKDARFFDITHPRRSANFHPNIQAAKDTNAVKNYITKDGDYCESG
Experimental: as §1

[4] = system: T4, Rep nickase domain of chickpea chlorotic dwarf virus
T4 sequence (Rep 1-124, printed without the tag): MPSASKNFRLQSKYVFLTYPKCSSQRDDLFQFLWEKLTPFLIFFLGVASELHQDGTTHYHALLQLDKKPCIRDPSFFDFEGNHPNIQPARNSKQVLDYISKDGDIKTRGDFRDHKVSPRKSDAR
Experimental: as §1

[5] = system: T5, Rep nickase domain of faba bean necrotic yellows virus
T5 sequence (Rep 1-98, printed without the tag): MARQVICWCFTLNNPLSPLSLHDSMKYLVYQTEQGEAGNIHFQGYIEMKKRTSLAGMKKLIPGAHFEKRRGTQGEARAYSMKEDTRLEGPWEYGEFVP
Experimental: as §1

[6] = system: T6, Rep nickase domain of maize striate mosaic virus
T6 sequence (Rep 1-117, printed without the tag): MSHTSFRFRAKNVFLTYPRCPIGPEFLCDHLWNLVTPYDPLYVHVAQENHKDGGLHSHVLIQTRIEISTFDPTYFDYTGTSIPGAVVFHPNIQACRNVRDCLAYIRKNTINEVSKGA
Experimental: as §1

[7] = system: T7, Rep nickase domain of porcine circovirus 2
T7 sequence (Rep 2-116, printed without the tag): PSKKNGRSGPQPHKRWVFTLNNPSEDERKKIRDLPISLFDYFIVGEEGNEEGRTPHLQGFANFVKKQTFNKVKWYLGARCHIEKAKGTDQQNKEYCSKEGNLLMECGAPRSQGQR
Experimental: as §1

[8] = system: T8, Rep nickase domain of tomato yellow leaf curl virus
T8 sequence (Rep 1-136, printed without the tag): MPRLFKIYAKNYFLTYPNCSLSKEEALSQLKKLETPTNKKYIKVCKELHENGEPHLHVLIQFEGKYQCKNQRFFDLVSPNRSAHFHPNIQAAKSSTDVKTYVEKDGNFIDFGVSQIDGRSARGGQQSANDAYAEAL
Experimental: as §1

[9] = system: T9, Rep nickase domain of wheat dwarf virus
T9 sequence (Rep 1-137, printed without the tag): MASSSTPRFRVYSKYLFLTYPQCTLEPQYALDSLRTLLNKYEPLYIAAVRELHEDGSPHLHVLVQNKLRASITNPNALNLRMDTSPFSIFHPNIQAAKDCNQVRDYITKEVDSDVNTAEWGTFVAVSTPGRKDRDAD
Experimental: as §1

| Sequence | uncleaved DNA left (log2) [1] | uncleaved DNA left (log2) [2] | uncleaved DNA left (log2) [3] | uncleaved DNA left (log2) [4] | uncleaved DNA left (log2) [5] | uncleaved DNA left (log2) [6] | uncleaved DNA left (log2) [7] | uncleaved DNA left (log2) [8] | uncleaved DNA left (log2) [9] |
| --- | --- | --- | --- | --- | --- | --- | --- | --- | --- |
| GGTCGTA | 0.135 | 0.179 | 0.529 | 1.17 | 0.164 | 1.74 | 0.165 | 0.261 | 0.283 |
| TACCGTG | -0.186 | -0.275 | -0.853 | -1.32 | -0.106 | -1.25 | -0.419 | -0.186 | -0.295 |
| TCCTGGA | 0.12 | 0.075 | 0.0141 | -0.0545 | 0.0276 | -0.307 | 0.00499 | -0.00678 | 0.0637 |
| ACTGGAG | 0.0481 | -0.0131 | -0.863 | -0.272 | -0.0331 | -1 | 0.142 | 0.109 | -0.139 |
| CTAACGC | 0.0105 | -0.123 | -0.514 | -0.882 | 0.00364 | -0.848 | 0.144 | -0.117 | -0.239 |
| GACCGGG | 0.125 | -0.119 | 0.612 | 0.98 | 0.116 | 1.19 | 0.251 | 0.0563 | 0.071 |
| CATCTCC | -0.0177 | -0.0318 | -0.262 | -0.0393 | -0.0952 | 1.4 | 0.0279 | -0.0127 | -0.0214 |
| GAGCGCA | 0.143 | 0.22 | 0.0641 | 0.657 | 0.16 | 1.15 | 0.176 | 0.18 | 0.102 |
| TTGCCTT | -0.137 | 0.00516 | -0.415 | -1.75 | 0.15 | -0.793 | -1.52 | 0.0598 | 0.0821 |
| ATTGCTC | 0.0719 | -0.0337 | -0.5 | -1.17 | -0.0256 | -1.13 | 0.0985 | 0.0794 | -0.0298 |
| ATCATCT | -0.039 | -0.00227 | -0.202 | -2.27 | -0.00672 | -0.91 | -0.233 | 0.0519 | -0.0105 |
| CTATTTA | -0.08 | 0.0368 | -0.235 | -1.78 | 0.0528 | -0.82 | -0.186 | 0.0386 | 0.0152 |
| TAGAACG | -0.108 | 0.0108 | -0.893 | -0.879 | -0.0537 | -1.33 | 0.0945 | -0.0691 | -0.167 |
| ACGGTGT | 0.0783 | -0.0387 | -0.144 | -0.473 | 0.0014 | -0.459 | 0.115 | 0.0613 | -0.0612 |
| TAATGAT | -3.25 | -0.52 | -4.5 | -2.9 | 0.032 | -2.79 | -4.08 | -1.52 | -3.92 |
| ATCGCGA | 0.0434 | -0.0486 | -0.769 | 0.343 | 0.0896 | -0.57 | 0.116 | 0.00841 | 0.00335 |
| ATGGATA | 0.114 | 0.00815 | 0.258 | 1.32 | 0.124 | 1.45 | 0.213 | -0.076 | -0.0545 |
| AAACTTT | 0.00351 | -0.0264 | -2.28 | -2.96 | 0.0149 | -1.2 | -1.55 | 0.0507 | -1.23 |
| CGCCACC | -0.0157 | 0.0918 | 0.125 | -0.292 | -0.0159 | -0.103 | -0.267 | 0.0423 | -0.0714 |
| GCTCACG | -0.0377 | -0.137 | -0.91 | -0.439 | 0.0345 | -0.886 | 0.126 | -0.0338 | -0.177 |
| GACTCAG | 0.0396 | 0.0293 | -0.524 | -0.544 | 0.0884 | -0.868 | 0.04 | 0.0503 | -0.0262 |
| GTAAGAT | 0.0376 | 0.0685 | -0.0517 | -0.485 | -0.0325 | 1.74 | 0.0959 | 0.00803 | 0.00901 |
| GAGGCGT | 0.064 | -0.0091 | 0.0975 | 0.527 | -0.0105 | 0.0868 | 0.0948 | -0.0641 | -0.0261 |
| GGCACTT | -0.00638 | 0.0473 | 0.627 | 1.56 | -0.0592 | 2.11 | 0.0817 | 0.0826 | 0.11 |
| GGGATAC | 0.0366 | 0.163 | 0.882 | 2.06 | 0.0342 | 2.14 | 0.259 | 0.0595 | 0.107 |
| GGGGACA | -0.0781 | 0.0958 | 0.867 | 2.07 | -0.0693 | 2.27 | 0.108 | -0.0627 | 0.117 |
| GTTCCAC | 0.032 | 0.0505 | 0.303 | 0.987 | -0.0258 | 1.73 | -0.00304 | 0.107 | 0.112 |
| CGAGGGC | 0.00819 | 0.058 | 0.0605 | 0.374 | -0.139 | 0.174 | 0.0146 | 0.0503 | -0.0532 |
| CACGATG | 0.00748 | -0.118 | -0.0568 | 0.315 | 0.00949 | 0.209 | 0.027 | -0.0062 | -0.0191 |
| AAAAGTC | 0.0988 | 0.159 | -0.954 | -1.02 | 0.133 | -0.855 | 0.161 | 0.0389 | -0.0813 |
